# Source: PubChem BioAssay AID330 (DTP/NCI, 2004)
# Toxic doses and inconclusive results are not listed. Not every entry of the source has a single result; some have several. The list is limited to them. There may be further records. The values listed for one entry differ for a reason that is not stated; they may come from other doses, times, organisms or constructs than stated. Records carry a tag for their origin. Letters hold for one entry only.
# Tested on: P388 leukemia ip, CD2F1 mice, survival T/C
# Assay: NCI In Vivo Anticancer Drug Screen. Data for tumor model P388 Leukemia (intraperitoneal) in CD2F1 (CDF1) mice
# Conditions: endpoint: median survival time, higher = longer survival
smiles,measurement,setting,value
O=C1c2ccccc2C(=O)c2c(NCCNCCO)ccc(NCCNCCO)c21,T/C,"dose: 80.0 mg/kg/injection, schedule: Q04DX003 (ip), vehicle: saline",102 % of control and 199 % of control
COc1cccc2c1C(=O)c1c(O)c3c(c(O)c1C2=O)C[C@@](O)(/C(C)=N/NC(=O)c1ccc(S(N)(=O)=O)cc1)C[C@@H]3OC1CC(N)C(O)C(C)O1 (stereo not given in full),T/C,"dose: 9.4 mg/kg/injection, schedule: Q04DX003 (ip), vehicle: water",119 % of control and 166 % of control
CCC1(O)CC2CN(CCc3c([nH]c4ccccc34)C(C(=O)OC)(c3cc4c(cc3OC)N(C)C3C(O)(C(N)=O)C(O)C5(CC)C=CCN6CCC43C65)C2)C1 (stereo not given) (tested in a mixture with another compound),T/C,"dose: 0.38 mg/kg/injection, schedule: Q04DX003 (ip), vehicle: saline",113 % of control and 162 % of control
same,T/C,"dose: 0.58 mg/kg/injection, schedule: Q04DX003 (ip), vehicle: saline","120 % of control, 162 % of control, 194 % of control"
CCOC(=O)C(CC(C)C)NC(=O)C(Cc1ccc(N(CCCl)CCCl)cc1)NC(C)=O (stereo not given),T/C,"dose: 32.0 mg/kg/injection, schedule: Q01DX009 (ip), vehicle: saline",200 % of control [sample A] and 100 % of control [sample B]
